# PubChem BioAssay AID504339 (National Center for Advancing Translational Sciences (NCATS), 2011)
# Hit rate of the full screen: of about 390,000 compounds, about 17,000 (4.4%) were called active. The inconclusive results got no clear call from the source; some entries with a clear call stand among them for comparison. The call rests on the fitted dose curve; in most records, active means well fitted inhibition curve with a large enough effect; inconclusive means small, poorly fitted or top-dose-only effect; inactive means no such curve, though single readings can be large or run the other way. Potencies beside an inconclusive call are fits to weak or partial responses and may not hold up.
# Target: Lysine-specific demethylase 4A (Homo sapiens) (UniProt O75164)
# Chain of UniProt O75164 (O75164 whole entry, looked up, the tested form may be a part): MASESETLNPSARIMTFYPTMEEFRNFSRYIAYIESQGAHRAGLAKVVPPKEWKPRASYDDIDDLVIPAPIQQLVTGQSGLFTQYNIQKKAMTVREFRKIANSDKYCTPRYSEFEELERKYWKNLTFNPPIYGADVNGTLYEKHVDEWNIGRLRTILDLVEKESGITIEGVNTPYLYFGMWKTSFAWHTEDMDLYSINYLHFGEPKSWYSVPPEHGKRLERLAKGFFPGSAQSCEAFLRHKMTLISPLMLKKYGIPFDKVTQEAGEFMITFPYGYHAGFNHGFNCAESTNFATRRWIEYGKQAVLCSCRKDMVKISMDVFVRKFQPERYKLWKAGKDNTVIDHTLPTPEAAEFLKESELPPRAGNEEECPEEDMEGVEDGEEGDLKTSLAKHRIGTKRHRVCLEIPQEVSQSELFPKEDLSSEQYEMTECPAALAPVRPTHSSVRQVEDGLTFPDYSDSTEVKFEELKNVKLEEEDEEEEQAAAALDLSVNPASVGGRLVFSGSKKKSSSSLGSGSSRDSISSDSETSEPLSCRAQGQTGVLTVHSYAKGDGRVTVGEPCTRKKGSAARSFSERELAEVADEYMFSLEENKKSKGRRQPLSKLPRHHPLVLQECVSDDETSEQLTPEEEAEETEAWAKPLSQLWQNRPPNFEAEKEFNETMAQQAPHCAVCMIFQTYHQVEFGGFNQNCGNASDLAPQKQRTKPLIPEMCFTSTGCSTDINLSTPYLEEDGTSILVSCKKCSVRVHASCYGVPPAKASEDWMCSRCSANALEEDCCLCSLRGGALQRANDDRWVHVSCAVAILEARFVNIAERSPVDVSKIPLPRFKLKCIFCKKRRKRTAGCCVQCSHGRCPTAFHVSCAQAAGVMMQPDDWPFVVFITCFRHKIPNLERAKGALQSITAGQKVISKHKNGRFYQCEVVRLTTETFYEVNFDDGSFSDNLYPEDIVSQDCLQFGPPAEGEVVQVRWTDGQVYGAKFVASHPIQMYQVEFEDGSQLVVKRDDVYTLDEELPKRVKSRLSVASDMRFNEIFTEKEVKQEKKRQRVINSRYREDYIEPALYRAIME
# Test: qHTS Assay for Inhibitors of JMJD2A-Tudor Domain; further: nearly all actives have a fitted effect of over 50% in size
# Details: AlphaScreen JMJD2A-Tudor / H3K4me3 peptide binding; series mostly up to 114 µM
# Potency means the concentration at half of the fitted maximal effect; tags describe the fitted curve by direction and shape.
row,Compound,Potency
1,COc1ccccc1NS(=O)(=O)c1cc(C(=O)NCC(c2ccc(F)cc2)N2CCOCC2)ccc1C (centres undefined),inactive
2,N#CCCN=C(NS(=O)(=O)c1ccccc1)c1ccccc1,inactive
3,CCOC(=O)C1=C(CN2CCC(C(=O)OCC)CC2)NC(=O)NC1c1ccc(Cl)cc1 (centres undefined),inactive
4,CC1(C)Cc2cccc(Oc3cc(NN4CCCCC4)c([N+](=O)[O-])cc3[N+](=O)[O-])c2O1,"inconclusive: 50.1 µM [inhibitor, partial curve, poor fit]"
5,COc1cccc(OCCOc2ccccc2OC(C)C)c1,inactive
6,CN1C(C(=O)Nc2ccc(F)cc2F)=CC(c2cccs2)=NS1(=O)=O,inactive
7,Cc1ccc2c(=O)cc(C(=O)Nc3nnc(C)s3)oc2c1,"inconclusive: 79.4 µM [inhibitor, single point]"
8,Cc1cccc(NC(=S)N/N=C2/CCCCc3ccccc32)c1,"inconclusive: 39.8 µM [inhibitor, partial curve]"
9,CC(C)(C)OC(=O)NCCCCCNC(=O)c1[nH]cnc1C(=O)Nc1nccs1,"inconclusive: 50.1 µM [inhibitor, partial curve]"
10,CC(C)(C)C1CCC(=NNC(=S)Nc2cccnc2)CC1 (centres undefined),"inconclusive: 35.5 µM [inhibitor, full curve, poor fit]"
11,CCCc1nnc(NC(=O)CCC(=O)N2CCN(c3ccccc3)CC2)s1,inactive
12,O=C(/C=C/c1cccc([N+](=O)[O-])c1)Nc1cc(C(=O)O)cc(C(=O)O)c1,active: 17.8 µM
13,C[N+](C)(C)CCOc1ccc([N+](=O)[O-])cc1,inactive
14,COC(=O)/C=C1\S/C(=N/NC(=O)c2ccc(OC)cc2)NC1=O,"inconclusive: 11.2 µM [inhibitor, partial curve, poor fit]"
15,O=C(N/N=C/c1cccn1-c1cccc(C(=O)O)c1)Nc1ccccc1,"inconclusive: 89.1 µM [inhibitor, partial curve]"
16,Cc1c(C(=O)c2ccc(N(C)C)cc2)c2ccccn2c1CCC#N,"inconclusive: 31.6 µM [inhibitor, partial curve]"
17,CCCCC1=CC2=C(c3ccco3)C(=O)C(C)(OC(=O)c3ccc(OC)cc3)C(=O)C2=CN1CCOC (centres undefined),"inconclusive: 39.8 µM [inhibitor, partial curve]"
18,CC(C)OCCCN1C(=O)c2[nH]nc(-c3ccccc3O)c2C1c1ccc(OCc2ccccc2)cc1 (centres undefined),"inconclusive: 12.6 µM [inhibitor, full curve]"
19,COc1cc(Cl)c(C)cc1NC(=O)CN1c2ccccc2S(=O)(=O)c2ccccc21,inactive
20,CCOc1cc(/C=C/C(=O)OCC(=O)NCc2ccco2)cc(Cl)c1OC,"inconclusive: 11.2 µM [inhibitor, full curve, poor fit]"
21,N#CCCn1cc(C(=O)Nc2ccc(C(=O)O)cc2)c(-c2cccs2)n1,active: 15.8 µM
22,COc1cc(OC)cc(C(=O)NNC(=S)NCc2ccco2)c1,inactive

row,Compound,Potency
1,Cc1occc1-c1nnc(SCC(=O)NCCc2ccccc2)n1Cc1ccccc1,"inconclusive: 89.1 µM [inhibitor, single point]"
2,CSc1nnc(-c2cc[n+](C)cc2)n1CCO,active: 89.1 µM
3,O=C(N/N=C/c1ccccn1)c1cc(-c2ccccc2)nc2ccccc12,"inconclusive: 79.4 µM [inhibitor, partial curve]"
4,COC(=O)c1ccc(C2C(C(=O)c3ccco3)=C(O)C(=O)N2c2cc(C)on2)cc1 (centres undefined),"inconclusive: 79.4 µM [inhibitor, single point]"
5,COc1ccc(S(=O)(=O)NCCSCc2cccc(C)c2)cc1Br,"inconclusive: 100 µM [inhibitor, single point]"
6,Cc1cc(C)c(/C=C/c2onc(C)c2S(=O)(=O)N2CCC(C(=O)N3CCN(c4ccccc4)CC3)CC2)c(C)c1,active: 22.4 µM
7,CCOC(=O)c1sc2ncn(CC(=O)Nc3ccc(C)cc3C)c(=O)c2c1C,inactive
8,C=CCOc1ccc(/C=C2\SC(=S)N(N3CCOCC3)C2=O)cc1,"inconclusive: 2.82 µM [inhibitor, full curve, poor fit]"
9,Cc1cc([N+](=O)[O-])ccc1NCc1ccc2c(c1)OCCO2,"inconclusive: 44.7 µM [inhibitor, partial curve]"
10,COc1ccc(-c2csc(NC(=O)Cc3ccccc3)n2)cc1OC,inactive
11,FC(F)(F)c1cc(C(F)(F)F)c2ccc(Oc3ccccc3)nc2n1,"inconclusive: 89.1 µM [inhibitor, single point]"
12,CCNc1nc(NC(C)C)nc(NC(C)(C)C)n1,inactive
13,CCN(CC)C(=O)CSC1=C(C#N)C(c2cccs2)C=C(C)N1 (centres undefined),active: 56.2 µM
14,Cc1ccc(S(=O)(=O)CCC(=O)OCC(=O)c2cc(C)ccc2C)cc1,inactive
15,CCOC(=O)c1c(S(=O)(=O)NCC(=O)N2CCN(c3ccccc3OC)CC2)c(C)n(C)c1C,inactive
16,CC1CCN(CC2C(=O)O[C@@H]3C[C@@]4(C)CCC[C@H](C)C4=C[C@H]23)CC(C)(C)C1 (some centres undefined),"inconclusive: 25.1 µM [inhibitor, partial curve]"
17,O=[N+]([O-])c1cccc(CSc2nnc(Cc3ccccc3)n2-c2ccc(F)cc2)c1,"inconclusive: 70.8 µM [inhibitor, single point]"
18,CCOC(=O)c1cccc(NC(=O)CCCn2c(C)c3cnn(-c4ccccc4)c(=O)c3c2C)c1,"inconclusive: 56.2 µM [inhibitor, partial curve]"
19,CCc1ccccc1N(CC(=O)N1CCN(c2ccc(F)cc2)CC1)S(C)(=O)=O,"inconclusive: 89.1 µM [inhibitor, single point]"
20,N#C/C(=C\N1CCN(Cc2ccc3c(c2)OCO3)CC1)c1nc2ccccc2s1,"inconclusive: 25.1 µM [inhibitor, full curve]"
21,Cc1ccc(NC(=O)c2cc3c(=O)[nH]c4ccccc4c3n2C)cc1F,"inconclusive: 11.2 µM [inhibitor, partial curve, poor fit]"
22,O=C1C(Cl)=C(NCCN2CCCCC2)C(=O)c2ccccc21,"inconclusive: 56.2 µM [inhibitor, partial curve]"
